In the supplement of paper PMC10126150:
Values marked as one replicate rest on one cluster of the flow cell; about a third of the high ones do not repeat.

System: ATP
Assay: switch fluorescence ratio, 500 uM ATP over buffer (Cy3 cluster intensity, sum of 5 cycles each) (fold (ratio)); higher = stronger signal-on switching upon ATP binding; sequences stand for … in TCGTCGGCAGCGTCAGATGTGTATAAGAGACAGTTTTTTTTTTTTTTTTTTTTTTTTT…TC
Conditions: aptamer strand: ATP DNA aptamer (quencher-CACCTGGGGGAGTATTGCGGAGGAAGG + anchor), 100 nM annealed; ATP concentration: 500 uM; one replicate
Procedure, shortened: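 Values give the fluorescence ratio for each switch-domain sequence, averaged from per-cluster ratios of summed target-cycle to summed buffer-cycle Cy3 intensity. The Cy3-labelled switching-strand clusters sat on a modified Illumina MiSeq flow-cell, were annealed to 100 nM quencher-labelled ATP aptamer, and were imaged in selection buffer, then after 15 min with 500 uM ATP at 22 °C. Five cycles ran with NaOH stripping and re-annealing between them, and clusters outside 100-1000 RFU were excluded.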
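Further: ATP exposure 15 min at 22 °C before imaging.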

Sequence | switch fluorescence ratio
TCAGGAGAGA | 0.997
TAGAGAGACT | 0.972
GAGGGCTAAG | 0.968
CCTTTAGCA | 2.01
GGTAATGGT | 0.953
TCTCACGTCA | 1.29
GCACTGTCGA | 1.1
ATGGCAAAGG | 1.03
TTCGTTACGG | 1.03
ATAGTATTTC | 1
TATGGGGTCC | 1.02
CTGTACCAGG | 1.78
TAGGTCTATG | 0.961
GCTAAAGCAG | 0.991
AGATATTGC | 1.01
GTTGTTCTAC | 1.03
GGGGTATAAT | 0.989
AGTAGTCCGG | 0.957
AGTGGATGTC | 1.05
CTGAGCATAC | 2.65
AACGTTAATA | 0.953
CATTGACGCA | 1.32
AGGTTCCCAC | 1
ATGGTCTAGG | 0.972
CTAACCTTGG | 1.06
CAGTGCATTC | 1.27

Sequence | switch fluorescence ratio
GTCAACTATC | 1.01
GTATGATCTT | 0.928
TTGGCATTA | 1.01
ACTGTACTTA | 1.34
TGGTATACAT | 1.01
CAATATAAAA | 1.01
CGCAGCATAT | 3.42
TCTCGTGAAA | 1.02
TGGATCCTTT | 1
TCTTTGATGC | 1.15
TGAACCAAAT | 1.02
ATTTTTAGTC | 1.04
CTTATTCTTA | 1.02
CGATTGGGGA | 1
AAGGGCGGTT | 1.04
AGTATTTGT | 0.971
ACATTTGGCA | 1.06
ACTTAACTCG | 1.05
CCGTGGTCCA | 1.03
TATATATGAG | 0.975
TAGTACAATT | 1.02
AACGCGCCCG | 1.07
TACGTCTCTT | 0.999
AGCCTCTTTC | 0.952
TCCTTTATTT | 0.982
AGGGCAGATG | 1

Sequence | switch fluorescence ratio
CTGCCACGAC | 1.52
TGTCTAGC | 0.95
TTGGCTAA | 0.937
CGGAGGATT | 1.02
CCGATCTTAA | 1.07
TGGGAGTGAG | 0.98
TATTCTAAGT | 1.01
CGTGCCCCAT | 0.976
ACACCTCGAT | 1.04
TTTACCCTCG | 1.09
CCCCTTAGAG | 1.03
GCTCGAATCA | 0.968
GCGTAATGCG | 1.05
GCTAGACAAC | 1.06
CCTTATTTTT | 1.01
AGTGAGAGCA | 0.996
GTATCGTCAC | 1.02
ACAATTGTTC | 1.02
CAGAATGATC | 1.04
CTCCATACCT | 1.32
CGAAGACGGA | 1.02
CATTTTAATG | 0.985
GCGACCACAC | 1.62
GTGCTGGCCG | 1.05
GGGCAGAAAC | 1.06
CCAGTACCAT | 0.94

Sequence | switch fluorescence ratio
GGAGATCAGC | 1.03
TGCCTTCTTA | 1.06
CTGTGCCGG | 1.01
AATAAATCAC | 0.998
AATCTGTTA | 0.982
GGGAGTGCGC | 0.948
TCATAGGGT | 1.01
CGAAGGTTGT | 0.994
CAAGTGCAGG | 1.05
TCCCTGTCAC | 1.16
TGCTCTAAGC | 1
AGTTTTCTGC | 1.14
ATCTAGACAC | 1.02
TGCGTGGAGG | 1.06
TCTCGGGGGT | 1.01
AGAATCTGAG | 0.976
AGAAAAATTA | 0.99
AGATTATGAG | 1.04
ACATGCTCGA | 1.06
GTTCCTGGGT | 1.33
CCCGGCAATT | 5.41
CCTTCTGGGA | 1.25
ATAGCCCGGA | 1.01
TAAACAAACT | 1.4
AGGGAGTCC | 0.921
CGTTATGCGT | 0.981

Sequence | switch fluorescence ratio
AGAAGGAAGC | 0.996
GTCATTACTG | 1.08
CGTGACACCG | 0.97
TACTGTTACA | 1.25
GGCGTGGGCA | 0.981
AAGCGGCCGA | 0.987
TTTTTGGT | 1.01
TTGCCTATTG | 1
TTTCCCGGCG | 1.35
AAACCCGCGA | 3.94
GCGTTCGTGT | 1
TTAAAATCTA | 1.03
GAAAGTTGAG | 0.969
CCCCGTGTTA | 1.54
GCCTTGTGCT | 0.991
CCATCAAAGG | 1.04
GCACTTTTGC | 1.06
CGCTGGTGTG | 0.99
GATATTGGTC | 1.05
GAGTGTAATT | 1.01
CGTGGTTTTA | 1.02
GGTGGGAAAT | 1.1
CGATGTTGTT | 0.961
AACGGTAGTA | 1.03
ATCTCGGGA | 1.01
TAACGGCCTA | 1.01

Sequence | switch fluorescence ratio
CGTCGGCCCG | 0.984
AGGCGAATGC | 0.998
GTTCGGACAT | 0.999
GGCGGGTTCT | 1.02
CCCTCGCCGT | 1.05
GGTGATTATC | 0.988
AACCCTATA | 1.05
ACTTTGAAAA | 0.993
CGTAGTATAC | 5.33
GCTGCAACAG | 1.1
AAATGGAGAG | 1.01
CAGATATCGC | 0.982
ATTTTGGCTG | 1
TTCTAGTATG | 0.986
TCAAGACCAA | 1.01
CAGACCAATG | 1.01
GACGTCGGCC | 1.02
GGAGCTCTGT | 0.967
ATATTGTCGG | 0.967
AGTAATGGA | 0.976
AATGTCTTGA | 1.02
TCCCTCGAGT | 1.06
TGCGGCTATT | 1.05
